Experimental data from patent publication US8247569B2, “Cyclohexane derivative and pharmaceutical use thereof” (Toray Industries, Inc., priority 2008, dated 2012).

Columns and labels:
[1] = system: mouse model having pain due to STZ-induced diabetic neuralgia; experiment: mouse model of pain due to streptozotocin (STZ)-induced diabetic neuralgia, von Frey test; assay type: in vivo; details: oral administration of 1 and 10 mg/kg; 1 hour after administration; vehicle 0.5% methyl cellulose; Williams test; FIG. 5
Description: STZ (250 mg/kg) or physiological saline was intraperitoneally administered to male ICR mice of 5 weeks old, to prepare mice having diabetes and a control group thereof. The mice having diabetes herein means mice whose blood glucose level at full feeding is not less than 350 mg/dL when a small amount of blood was collected from the tail vein 6 days after administration of STZ and the blood glucose level was measured using a blood glucose meter Precision Xceed and an electrode for measurement of blood glucose Smartblue (Abbott).
Seven days after the administration of STZ, the von Frey test was carried out for the mice having diabetes as in the above-described case of evaluation of neuropathic pain, and individuals showing a total score of 5 or higher were selected as individuals having the diseased state of pain due to diabetic neuralgia. The selected individuals were divided into groups such that the total score becomes even among the groups, followed by oral administration of test compounds. One hour after the oral administration, the von Frey test was further carried out, and the obtained value was used as an index of the analgesic effect. As a positive control, pregabalin (10 mg/kg, oral administration) was used.
As the vehicle of the test compound suspension, 0.5% methyl cellulose was used. […]

[2] = system: mouse sciatic nerve-ligation model (Seltzer model); experiment: mouse partial sciatic nerve ligation model (Seltzer model), von Frey test; details: oral administration of Example 2-B and Example 62 in amounts of 0.3 and 1.0 mg/kg, respectively; FIG. 2, FIG. 3

COc1ccc(-n2nc(C3(O)CCC(O)CC3)cc2-c2ccc(C)cc2)cc1 (stereo not drawn) [Example 2-B, 1-(1-(4-methoxyphenyl)-5-(p-tolyl)-1H-pyrazol-3-yl)cyclohexane-cis-1,4-diol]
total score of the von Frey test vs STZ administration+vehicle group [1]: significantly improved
analgesic effect 3 hours after the oral administration (von Frey test) [2]: a strong analgesic effect was maintained
